{"source": "paper PMC12040169", "about": "(PLOS Biology, 2025)", "note": "The other results are listed elsewhere or left out."}
{"system": "T1, C. trachomatis L2/434/Bu expressing GFP (CTL2-GFP)", "T1 construct": "L2/434/Bu GFP intracellular growth in HeLa cells", "design": "species or system HeLa; C. trachomatis total inclusion area by high-content imaging, normalised to DMSO", "settings": "total inclusion area; 28.5 h, 10 µM; inhibitor", "in_short": "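Bulk GFP and resorufin signals were read first. Wells were then fixed, stained with Hoechst and imaged to detect GFP inclusions and host nuclei. MICs followed the previously described calculation.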"}
{"smiles": "CCCCNCC(=O)Nc1sc2c(c1C(=O)O)CCCC2", "note": "[CBK287207]", "% of control remaining": 105.474}
{"smiles": "Cc1cc(CNCc2c(C(C)C)nn(C)c2N(C)C)no1", "note": "[CBK304855]", "% of control remaining": 50.0929}
{"smiles": "Cc1cc(C)n(CCCNC(=O)Cn2cnc3sc(C)c(C)c3c2=O)n1", "note": "[CBK305852]", "% of control remaining": 4.393}
{"smiles": "CN1CC(CO)Oc2ccccc21", "note": "(stereo not shown) [CBK003872C]", "% of control remaining": 102.888}
{"smiles": "CCOc1cc(C(=S)N2CCN(C)CC2)ccc1OCC(=O)N1CCOCC1", "note": "[CBK266856]", "% of control remaining": 69.7561}
{"smiles": "CCc1ccc(OCC(=O)O/N=C(\\N)c2ccncc2)c(Br)c1", "note": "[CBK265994]", "% of control remaining": 81.9178}
{"smiles": "C=CCn1c2cc(C)sc2c2cnn(CC(=O)OCC)c(=O)c21", "note": "[CBK284165]", "% of control remaining": 72.6803}
{"smiles": "O=C(Nc1ccc(O)c(-c2nc3ccccc3o2)c1)c1ccc(-c2ccc([N+](=O)[O-])cc2)o1", "note": "[CBK263439]", "% of control remaining": 86.8246}
{"smiles": "NS(=O)(=O)c1ccc(NC(=O)CN2CCC(Cc3ccccc3)CC2)cc1", "note": "[CBK266161]", "% of control remaining": 120.265}
{"smiles": "NS(=O)(=O)c1ccc(NC(=O)CSc2nc3sc4c(c3c(=O)n2-c2ccc(Cl)cc2)CCCC4)cc1", "note": "[CBK267577]", "% of control remaining": 100.092}
{"smiles": "CCOC(=O)C1(C2CCCCC2)CCN(C(=O)CCSC)CC1", "note": "[CBK136929]", "% of control remaining": 97.6349}
{"smiles": "O=C(NCC(CO)Cc1ccccn1)c1ccc2cc[nH]c2c1", "note": "(stereo not shown) [CBK305222]", "% of control remaining": 47.6714}
{"smiles": "CC1=C(C(=O)OCc2ccccc2)C2(C(=O)Nc3ccccc32)C(C(=O)OCc2ccccc2)=C(N)O1", "note": "(stereo not shown) [CBK262576]", "% of control remaining": 100.595}
{"smiles": "CCCn1nccc1S(=O)(=O)NCCN1CCCCC1CO", "note": "(stereo not shown) [CBK307259]", "% of control remaining": 89.353}
{"smiles": "O=C(O)Cn1c2ccccc2c2cc([N+](=O)[O-])ccc21", "note": "[CBK261732]", "% of control remaining": 91.7114}
{"smiles": "NS(=O)(=O)c1cccc(NC(=O)c2cccnc2)c1", "note": "[CBK024417]", "% of control remaining": 83.3389}
{"smiles": "COc1cc(-c2ccc3ccc(=O)[nH]c3n2)cc(OC)c1OC", "note": "[CBK073721]", "% of control remaining": 145.688}
{"smiles": "COc1ccc(C(=O)Nc2ccccc2Nc2cc(-c3ccccc3)nn2-c2ccccc2)cc1", "note": "[CBK261296]", "% of control remaining": 70.912}
{"smiles": "CC1=CC(C)C(CN(CCC[N+](C)(C)C)C(=O)Nc2ccccc2)C(C)C1", "note": "(stereo not shown) [CBK262507I]", "% of control remaining": 110.161}
{"smiles": "O=C(NC1CCCC1)c1ccccc1Cl", "note": "[CBK001992]", "% of control remaining": 99.3881}
{"smiles": "C[C@H](NC(=O)N1CCN(C(=O)CCc2c[nH]c3ccccc23)CC1)C(=O)O", "note": "[CBK286774]", "% of control remaining": 82.2804}
{"smiles": "CCN(CC)CCn1c(=N)n(CC(=O)OC)c2ccccc21", "note": "[CBK262517B]", "% of control remaining": 57.238}
{"smiles": "N#Cc1nccnc1NCc1ccccc1CN1CCCC1CO", "note": "(stereo not shown) [CBK306418]", "% of control remaining": 74.1137}
{"smiles": "NS(=O)(=O)c1ccc(CNC(=O)c2ccccc2Nc2cccc(C(F)(F)F)c2)cc1", "note": "[CBK149579]", "% of control remaining": 106.128}
{"smiles": "CCOC(=O)N1CCC(NS(=O)(=O)c2cn(C)c(=O)n(C)c2=O)CC1", "note": "[CBK305699]", "% of control remaining": 65.8293}
{"smiles": "O=C(C1CCC1)N1CCC(n2nc(C3CC3)ccc2=O)CC1", "note": "[CBK284239]", "% of control remaining": 61.9673}
{"smiles": "CCCC/C=C/c1cnc(N)c(-c2ccc(N3CCOCC3)cc2)n1", "note": "[CBK063891]", "% of control remaining": 81.6644}
{"smiles": "CC(C)(C)c1ccc(C(=O)NNC(=O)C(=O)Nc2ccccc2)cc1", "note": "[CBK261701]", "% of control remaining": 104.591}
{"smiles": "CCn1cc(Br)c(C(=O)Nc2nccs2)n1", "note": "[CBK265890]", "% of control remaining": 111.976}
{"smiles": "Cc1c(C(=O)O)sc(S(=O)(=O)N2CCN(C(=O)CCC3CCCC3)CC2)c1C(=O)O", "note": "[CBK297121]", "% of control remaining": 72.552}
{"smiles": "O=C(Nc1ccccc1)c1cc2sccc2s1", "note": "[CBK057696]", "% of control remaining": 67.2572}
{"smiles": "CS(=O)(=O)Nc1cc(-c2noc([C@@H]3CCCN3Cc3ccncc3)n2)ccn1", "note": "[CBK288886]", "% of control remaining": 101.764}
{"smiles": "COc1ccc(-c2nc(NC(=O)CSc3nnc(C)s3)ns2)cc1", "note": "[CBK267290]", "% of control remaining": 98.6266}
{"smiles": "CCCc1cc(=O)oc2cc(OCC(=O)OC(C)C)c(Cl)cc12", "note": "[CBK264459]", "% of control remaining": 109.832}
{"smiles": "CCN(c1ccc(NC(=O)Cn2nc(C(=O)O)c3ccccc3c2=O)cc1)C(C)C", "note": "[CBK297734]", "% of control remaining": 84.9254}
{"smiles": "O=C(N[C@H]1CO[C@H]2[C@@H]1OC[C@@H]2n1nnnc1-c1ccccc1)c1ccccc1", "note": "[CBK289482]", "% of control remaining": 84.4962}
{"smiles": "COc1ccc(O)c(C(=O)c2cnn(-c3ccc(Cl)c(C(=O)O)c3)c2)c1", "note": "[CBK297914]", "% of control remaining": 112.306}
{"smiles": "CN1C(=O)CC2(C1=O)C(=O)N(Cc1ccccc1)c1ccc(F)cc12", "note": "(stereo not shown) [CBK075163]", "% of control remaining": 90.768}
{"smiles": "O=C1NC(=O)C(CCCCN2CCC3(CCN(C(=O)c4cc(F)c(F)cc4F)C3)C2)N1", "note": "(stereo not shown) [CBK132147]", "% of control remaining": 91.2849}
{"smiles": "Cc1nn(-c2ccccc2)c(CN2C(=O)NC3(CCCC3)C2=O)c1C#N", "note": "[CBK305572]", "% of control remaining": 80.6662}
